These results are taken from US20140234313A1 (AFFINITY BIOSCIENCES, published 2014).

For assay [1], the target named is T1, mAG-BioHis6 protein (monomeric Azami-Green with C-terminal BirA biotinylation motif and 6xHis tag) (biotinylated (E. coli BirA biotinylation motif) where bound to streptavidin beads).
T1 construct: Fluorescent target protein, purified; also called mAG1; biotinylated mAG
T1 chain: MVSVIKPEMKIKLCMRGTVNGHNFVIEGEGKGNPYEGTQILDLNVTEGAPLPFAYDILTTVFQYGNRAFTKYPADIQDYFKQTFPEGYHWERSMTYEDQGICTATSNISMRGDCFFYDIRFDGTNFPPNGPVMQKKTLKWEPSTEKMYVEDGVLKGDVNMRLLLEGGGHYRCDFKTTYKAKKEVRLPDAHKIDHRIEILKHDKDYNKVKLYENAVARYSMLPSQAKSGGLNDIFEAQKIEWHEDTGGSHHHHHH
Put plainly: FACS and fluorescence microscopy of permeabilised cells with encapsulated lysis-defective lambda phage, labelled with mAG. The procedure:
The mAG-positive cells containing encapsulated phage are in the right gate. The bacteriophage recovered from the FACS screen were induced for bacteriophage replication and gpD::α-mAG expression and labeled with mAG using the RED method (Bottom).
The gpD::α-mAG scFv fusion was then cloned into the lambda display vector under the control of the araBAD promoter. The host cells were induced for lambda packaging by heating the lysogen clone at 42° C. for 15 minutes (the lambda genetic background was cI857 gpD⁺ RS⁻ with the temperature sensitive cI repressor). The fusion protein was induced with 0.2% arabinose immediately following thermal induction. The culture was grown, with aeration, at 32° C. for a further 75 minutes. The cells were pelleted and resuspended in ⅓^rd culture volume of LB media+0.5% 8TGP and incubated at 25° C. for 10 minutes to permeabilise the cells by the RED method for screening. To release the phage, 1/10,000th culture volume of Ready-Lyse (Epicentre) lysozyme was added to the suspension. A drop of chloroform was added to inactivate any surviving cells and the bacteriophage particles released were titred for lysogen forming units (cfu/mL). Two bacteriophage stocks were made—one with the construct with the cloned gpD::α-mAG scFv fusion, the other an empty construct. […]

Assay [2] addresses T1, mAG-BioHis6 protein (monomeric …). Put plainly: RED display screen (MACS beads, FACS), mAG labelling of permeabilised cells. The procedure: 10¹⁰ cells of the diversified library, representing a ˜100-fold redundancy were induced for RED display as described in Example 2 and in WO 2011/075761. The permeabilised cells were suspended in 50 mL PBS and were labeled with purified mAG that had been pre-bound to MACS streptavidin-conjugated microbeads (130-048-102, Miltenyi Biotec). The cells and microbeads were gently agitated overnight at 4° C. They were then loaded onto 3×LS columns (130-042-401, Miltenyi Biotec) that were fixed to a magnetic support. Each column was washed with 50 mL of PBS. The cells were eluted in 10 mL PBS, pooled and pelleted. Plasmid DNA encoding the library in the RED display vector was isolated from the cell pellet by the alkaline lysis. The plasmid was then electroporated back into Argentum cells and the induction, binding and column purification was repeated. After four iterations of the affinity screen, a low abundance of RED permeabilised cells were observed by fluorescence microscopy to be binding to the mAG protein. At the fifth iteration the permeabilised cells were sorted for mAG binding by FACS. Cells were labeled for FACS using SNAP ligand, to normalise the fusion protein expression, and mAG. […] The scFv from the mAG-positive cells that were the FACS output were recovered by PCR using oligonucleotide primers flanking the scFv sequence and the product was re-cloned back into the RED display vector. […]

B1: gpD::α-mAG scFv fusion protein (scFv)
scFv: MTSKETFTHYQPQGNSDPAHTATAPGGLSAKAPAMTPLMLDTSSRKLVAWDGTTDGAAVGILAVAADQTSTTLTFYKSGTFRYEDVLWPEAASDETKKRTAFAGTAISIVGGSGGSDDDDKSRNGGDGQSVLTQPPSVSVSPGQTASITCSGDKLGDKYACWYQQKPGQSPVLVIYQDSKRPSGIPERFSGSNSGNTATLTISGTQAMDEADYYCQAWDFNLGGCGDTVVFGTGTKVTVSSQTGGSGGGGSGGGGSGGGGS[letters of about 100 residues left out]HIDGPVAAFDIWGQGTMVTVSNSSDYKDDDDK
notes: α-mAG scFv as C-terminal fusion to the lambda bacteriophage gpD capsid protein with C-terminal FLAG; also called lambda capsid gpD fusion of the α-mAG scFv
On to B1, for which the binding result in assay [1] is recorded as “binds”.

B2: α-mAG scFv (mAG-binding IGLV3-1::IGHV3-23 clone) displayed in RED permeabilised E. coli cells (scFv)
scFv: MGDGQSVLTQPPSVSVSPGQTASITCSGDKLGDKYACWYQQKPGQSPVLVIYQDSKRPSGIPERFSGSNSGNTATLTISGTQAMDEADYYCQAWDFNLGGCGDTVVFGTGTKVTVSSQTGGSGGGGSGGGGSGGGGS[letters of about 100 residues left out]HIDGPVAAFDIWGQGTMVTVSSSSQTSILVA
notes: Expressed in the E. coli cytoplasm as a fusion in the RED display vector and retained in permeabilised cells; also called anti-mAG-BioHis6 scFv; not shown: the vector is described in WO 2011/075761
On to B2, for which the binding result in assay [2] is listed as “binds”.
